In ChEMBL document CHEMBL5303300, “EUbOPEN Chemogenomics Library - Multiplex” (2023):

What was measured:
Assay type in all cases: toxicity, cell-based
[1] = tested on: Fibroblast; experiment: Multiplex assay against human fibroblast; conditions: 10 µM, compound concentration 10 uM, number of replicates 2
How it was run: (§1)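 Compound was added to live cells that had been stained at seeding with Hoechst33342, BioTracker Green Microtubule Cytoskeleton Dye, MitoTracker Red and Annexin V Alexa Fluor 680, and imaging followed on a CQ1 microscope at 37°C and 5% CO2. CellPathfinder machine-learning gating divided cells into Hoechst high-intensity objects or normal cells, normal cells into healthy, pyknosed or fragmented nuclei, and pyknosed cells into mitotic or apoptotic. Tubulin, mitochondrial-mass and membrane-permeability phenotypes are per cents of healthy-nucleus cells.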

[2] = tested on: U2OS; experiment: Multiplex assay against U2OS; conditions: human, number of replicates 2; how it was run: as §1
[3] = tested on: HEK-293T; experiment: Multiplex assay against HEK293T; conditions: human, 10 µM, compound concentration 10 uM, number of replicates 2; how it was run: as §1
[4] = 12 h, 10 µM, compound concentration 10 uM
[5] = 24 h, 10 µM, compound concentration 10 uM
[6] = 48 h, 10 µM, compound concentration 10 uM
[7] = 48 h, 1 µM, compound concentration 1 uM

CCOC(=O)Nc1cc(-c2ccc(C)c(NS(C)(=O)=O)c2)nn2c(C)nnc12
Population Membrane Permeable-Phenotype (%) ([1]; 12 h): 8, 11, 6, 22% | Population Mitotic Cells (%) ([1]; 48 h): 19%, 2%, 27% | Population Fragmented Nuclei (%) [2, 4]: 8, 5, 6, 31% | Total Cell Count [2, 4]: 45, 156, 198, 32 | Population Fragmented Nuclei (%) [2, 5]: 13, 11, 12, 40% | Population Mitochondria Different-Phenotype (%) [2, 5]: 8, 3, 1, 12% | Total Cell Count [2, 5]: 61, 207, 241, 32 | Population Membrane Permeable-Phenotype (%) [2, 6]: 18, 14, 3, 5% | Population Tubulin-Different-Phenotype (%) [2, 6]: 27, 66, 90, 86% | Total Cell Count [2, 6]: 36, 64, 248, 286 | Population Mitochondria Different-Phenotype (%) ([3]; 24 h): 29, 8, 13, 18% | Population Mitochondria Different-Phenotype (%) ([3]; 48 h): 4%, 22%, 12% | Population Tubulin-Different-Phenotype (%) ([3]; 48 h): 5, 32, 4, 10%

CC(C)(C)c1cnc(CSc2cnc(NC(=O)C3CCNCC3)s2)o1 [BMS-387032]
Population Fragmented Nuclei (%) ([2]; 12 h, 1 µM, compound concentration 1 uM): 30% and 7% | Population Fragmented Nuclei (%) [2, 4]: 50% and 6% | Population Membrane Permeable-Phenotype (%) [2, 4]: 15% and 4% | Population Tubulin-Different-Phenotype (%) [2, 4]: 15% and 49% | Total Cell Count [2, 4]: 40 and 182 | Population Mitotic Cells (%) ([2]; 24 h, 1 µM, compound concentration 1 uM): 33% and 5% | Population Fragmented Nuclei (%) [2, 5]: 48% and 12% | Population Membrane Permeable-Phenotype (%) [2, 5]: 28% and 7% | Total Cell Count [2, 5]: 43 and 185 | Population Membrane Permeable-Phenotype (%) [2, 7]: 14% and 2% | Population Mitotic Cells (%) [2, 7]: 31% and 6% | Population Fragmented Nuclei (%) [2, 6]: 51% and 14% | Total Cell Count [2, 6]: 47 and 179 | Population Pyknosed Nuclei (%) ([3]; 12 h): 16% and 5%

For part of its entries the source gives two or more results. The other results are left out here. There may be further records. The records of an entry are repeated measurements across runs, samples, wells, individuals or studies.
